{
  "source": "PubChem BioAssay AID504832",
  "about": "(National Center for Advancing Translational Sciences (NCATS), 2011)",
  "note": "About 18,000 (5.8%) of roughly 310,000 compounds were called active. This list was built around the results that the source calls inconclusive (neither active nor inactive); the mix of calls is not that of the screen. Calls follow the shape of the dose curve; as a rule, active = well fitted inhibition curve with a large enough effect; inconclusive = small, poorly fitted or top-dose-only effect, or another doubt; inactive = no such curve, though single readings can be large or run the other way. Potencies of inconclusive entries are left out as doubtful fits. % is scaled to controls: 0 for no effect and ±100 for the full control effect; potency is read from the fitted curve at half-maximal effect; tags tell the direction and shape of the fitted curve.",
  "data": [
    {"test": "Primary qHTS for delayed death inhibitors of the malarial parasite plastid, 48 hour incubation", "conditions": "P. falciparum luciferase growth in erythrocytes; series mostly up to 28.7 µM; activity change, negative = inhibition: at the top concentration", "in_short": "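Luciferase-expressing P. falciparum in infected erythrocytes (2% hematocrit, 0.1% parasitemia final) in RPMI 1640/0.5% Albumax were exposed to compound for 48 hours at 37 C, 5% CO2; growth read as luminescence.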", "values": [
      {"smiles": "COc1ccc(-c2ccc3c(c2)S(=O)(=O)c2cccc(C(=O)NC[C@@H]4CCCO4)c2C3=O)cc1OC", "Potency": "active: 13.1 µM"},
      {"smiles": "COc1ccccc1NC(=O)CC1C(=O)Nc2ccccc2N1C(=O)c1ccccc1", "note": "(stereo not given)", "activity change, negative = inhibition": "inactive: -5.29%"},
      {"smiles": "CCOc1cc(-c2ccc(N)c(OCC)c2)ccc1N", "activity change, negative = inhibition": "inactive: -8.66%"},
      {"smiles": "CC(=O)Nc1cccc(/C(C)=N/NC(=O)c2cc(-c3ccncc3)nc3ccccc23)c1", "Potency": "inconclusive [inhibitor, single point]"},
      {"smiles": "O=C(NNc1c2ccccc2nc2ccccc12)C(O)c1ccccc1", "note": "(stereo not given)", "Potency": "inconclusive [inhibitor, partial curve]"},
      {"smiles": "CCOC(=O)C(C(C)C)C(N)Cc1ccc(F)cc1", "note": "(stereo not given)", "activity change, negative = inhibition": "inactive: -12.2%"},
      {"smiles": "Cc1ccc(C(=O)N2CCc3cc4c(cc3C2C)OCCCO4)cc1", "note": "(stereo not given)", "Potency": "inconclusive [inhibitor, single point]"},
      {"smiles": "Cc1ccc(C(=O)NCC(=O)NCc2cc(=O)n(C)c(=O)n2C)cc1", "activity change, negative = inhibition": "inactive: 20.1%"},
      {"smiles": "CCN(CC)CCN(C(=O)CN1C(=O)c2ccccc2C1=O)c1nc2cc3c(cc2s1)OCO3", "activity change, negative = inhibition": "inactive: 8.26%"},
      {"smiles": "C#CCOCCOCCOCCNc1nc(N2CCN(C(=O)CCCCCCCCCCNC(=O)Cn3cc(C[C@@H](C)O)nn3)CC2)nc(N2CCN(C(=O)CCCCCCCCCCNC(=O)[C@H](CCCCN)n3cc(CCCC(=O)O)nn3)CC2)n1", "Potency": "active: 5.22 µM"},
      {"smiles": "COc1ccc(C(=O)NC2CC2)cc1OC1CCN(Cc2ccc(F)c(F)c2)CC1", "Potency": "inconclusive [inhibitor, partial curve, poor fit]"},
      {"smiles": "CC(C)(C)c1ccc(C(=O)Nc2ccc(O)c3c(=O)cc(-c4cccc(Cl)c4)oc23)cc1", "Potency": "inconclusive [inhibitor, single point]"},
      {"smiles": "Cc1cc(NC(=O)c2ccc(S(=O)(=O)N3CCc4ccccc43)cc2)no1", "Potency": "inconclusive [inhibitor, partial curve]"},
      {"smiles": "O=C(NCCN1CCCCC1)Nc1ccc(Br)cc1", "Potency": "inconclusive [inhibitor, single point]"},
      {"smiles": "Cc1nn(Cc2ccc(F)cc2)c(Cl)c1/C=N/NC(=O)c1ccccc1", "Potency": "inconclusive [inhibitor, partial curve, poor fit]"},
      {"smiles": "CC(C)C(=O)Nc1ccc(C(=O)CN2C(=O)NC3(CCOc4ccccc43)C2=O)cc1", "note": "(stereo not given)", "Potency": "inconclusive [inhibitor, single point]"},
      {"smiles": "COc1ccc(-c2cc(C(=O)NCCCN3CCOCC3)c3ccccc3n2)cc1OC", "Potency": "inconclusive [inhibitor, full curve]"},
      {"smiles": "c1ccc(CSc2nnc(-c3cccnc3)o2)cc1", "activity change, negative = inhibition": "inactive: 184%"},
      {"smiles": "Cc1cccc(-c2n[nH]c([N+](=O)[O-])n2)c1", "activity change, negative = inhibition": "inactive: 2.56%"},
      {"smiles": "Cc1ccc(C)c(S(=O)(=O)NCc2ccc(C(=O)NCc3ccco3)cc2)c1", "Potency": "inconclusive [inhibitor, single point]"},
      {"smiles": "COc1cccc(C(=O)NNC2OC(CO)C(O)C2O)c1", "note": "(stereo not given)", "Potency": "inconclusive [inhibitor, partial curve, poor fit]"},
      {"smiles": "CCC1CCCCN1C(=O)c1ccc2nc(Cc3ccc(OC)cc3)oc2c1", "note": "(stereo not given)", "Potency": "inconclusive [inhibitor, single point]"},
      {"smiles": "COc1ccc(NC(=O)Cn2cc(C#N)c3ccccc32)cc1", "Potency": "inconclusive [inhibitor, partial curve]"},
      {"smiles": "COC(=O)c1nc(Cl)c(Cl)c(N)c1Cl", "Potency": "active: 10.4 µM"},
      {"smiles": "CCCCNC(=O)CCc1nc2cccnc2n1Cc1ccccc1", "activity change, negative = inhibition": "inactive: 32%"},
      {"smiles": "CN(C)c1ccnc(Nc2ccc(O)cc2)c1C#N", "Potency": "inconclusive [inhibitor, single point]"},
      {"smiles": "COc1ccc(OCC(O)CNC(=O)Nc2ccc(C(C)(C)C)cc2)cc1", "note": "(stereo not given)", "activity change, negative = inhibition": "inactive: -2.44%"},
      {"smiles": "CCO[C@H]1OC(C(=O)NC2CC2)=C[C@@H](c2csc3ccccc23)[C@@H]1CCCO", "Potency": "inconclusive [inhibitor, full curve, poor fit]"},
      {"smiles": "COc1cc2[nH]c(C(=O)NN)c(N)c2cc1OC", "Potency": "inconclusive [inhibitor, single point]"},
      {"smiles": "O=C(CCN1CCCCC1)N=Nc1c(O)[nH]c2ccccc12", "Potency": "inconclusive [inhibitor, full curve, poor fit]"},
      {"smiles": "CCOc1cc(C(=O)N2CCC(CC3CC(c4cccc(Br)c4)=NO3)(C(=O)NCC3CCCCC3)CC2)cc(OCC)c1OCC", "note": "(stereo not given)", "Potency": "active: 0.37 µM"},
      {"smiles": "N#Cc1c(C(F)(F)F)cc(-c2ccccc2)nc1SCC(=O)Nc1sc2c(c1C#N)CCC2", "Potency": "inconclusive [inhibitor, full curve]"},
      {"smiles": "CC(OC(=O)CCc1cc(C(C)(C)C)c(O)c(C(C)(C)C)c1)C(=O)NC1CC1", "note": "(stereo not given)", "Potency": "active: 0.465 µM"},
      {"smiles": "COc1ccc2ccccc2c1CNCCc1ccccc1", "Potency": "active: 10.4 µM"},
      {"smiles": "C=CCn1c(=O)c(C(=O)Nc2cc(C)ccn2)c(O)c2ccccc21", "activity change, negative = inhibition": "inactive: 18.3%"},
      {"smiles": "Cc1ccc(NC(=S)NNC(C)(C)C)cc1", "Potency": "active: 13.1 µM"},
      {"smiles": "O=C(N/N=C/c1ccccc1Cl)C1CC1", "activity change, negative = inhibition": "inactive: 0.841%"},
      {"smiles": "CC(C)(C)C(=O)NC(=S)NNC(=O)C(c1ccccc1)c1ccccc1", "Potency": "active: 13.1 µM"},
      {"smiles": "O=C(Nc1c(C(=O)N2CCC(N3CCCCC3)CC2)oc2ccccc12)c1c(F)cccc1F", "Potency": "inconclusive [inhibitor, partial curve, poor fit]"},
      {"smiles": "CN(Cc1ccccc1)C(=S)Nc1ccc2nc3n(c(=O)c2c1)CCCCC3", "Potency": "inconclusive [inhibitor, single point]"},
      {"smiles": "Cc1ccc(OCC(=O)Nc2cc(S(=O)(=O)N3CCCCC3)ccc2N2CCN(C)CC2)c(C)c1", "Potency": "active: 2.33 µM"},
      {"smiles": "CC(C(=O)Nc1ccncc1)(c1ccccc1)c1ccccc1", "Potency": "inconclusive [inhibitor, single point]"},
      {"smiles": "CN1C(=O)/C(=C/c2ccccc2OCc2ccccc2)NC1=S", "activity change, negative = inhibition": "inactive: -7.72%"},
      {"smiles": "NC(=O)c1nsc(C(=O)N(CC(=O)NCc2ccc3c(c2)OCO3)C2CCCC2)c1N", "Potency": "inconclusive [inhibitor, partial curve, poor fit]"},
      {"smiles": "CC(NC(=O)CCc1nnc(-c2ccc(-c3ccccc3)cc2)o1)c1nc2ccccc2[nH]1", "note": "(stereo not given)", "Potency": "inconclusive [inhibitor, single point]"}
    ]}
  ]
}
